Measured values reported in PubChem BioAssay AID1963576 (National Center for Advancing Translational Sciences (NCATS), 2024).
The campaign covered roughly 46,000 compounds. About 60 (0.1%) were called active. Roughly 3% stayed inconclusive and do not appear here. The call rests on the fitted dose curve; in most records, active means well fitted inhibition curve with a large enough effect; inconclusive means small, poorly fitted or top-dose-only effect; inactive means no such curve, though single readings can be large or run the other way. The list shows a part of the results.

Assay: Primary qHTS assay for Inhibitors of ovarian cancer metastasis using an organotypic tumor microenvironment (TME) model. Further: nearly all actives have a fitted effect of over 65% in size.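 On activity change, negative = inhibition: plate controls were DMSO wells for no effect and tomatine positive control wells for full effect.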
Conditions: SKOV3ip1-GFP adhesion/invasion on 3D omental model, fluorescence; series mostly up to 45.8 µM; activity change, negative = inhibition: at the top concentration
Outline: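 qHTS, 4-pt dose (0.36-46 umol/L); SKOV3ip1-GFP, 1,200 cells/well, no FBS; primary omental fibroblast/mesothelial co-culture 48 h pre-grown; 2 h RT + 16 h 37 C; PBS wash, 4% PFA; GFP count 488/509 nm.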

Activity change, negative = inhibition, inactive:
O=C(Nc1ccc2nc(SCC(=O)N3CCCC3)sc2c1)c1ccccc1F -4.87%
COc1ccccc1CNC(=O)CN1C(=O)CCc2cc(S(=O)(=O)N3CCOCC3)ccc21 -9.84%
COc1ccc(CNC(=O)c2c(Nc3ccccc3C)sc(C(=O)c3ccccc3)c2N)cc1 -1.18%
Cc1ccc(OCc2nc(-c3ccc(C(=O)NCCc4ccc(S(N)(=O)=O)cc4)cc3)oc2C)cc1 5.11%
COC(=O)c1c(NC(=O)CCCOc2ccccc2C)sc2c1CCC(C)C2 (stereo unspecified) 2.18%
CCOC(=O)c1sc2ccccc2c1S(=O)(=O)N1CCN(c2ccccc2)CC1 -2.12%
O=C(CSc1nc(-c2cccs2)nc2cc(=O)[nH]n12)Nc1ccc(F)cc1 2.35%
CCOc1ccc(NC(=O)CNS(=O)(=O)c2ccc(Br)s2)cc1 -27%
COc1ccc(NC(=O)c2cc(-c3ccccc3O)no2)cc1 1.35%
CC1CN(C(=O)N2CCC(C(=O)NCc3ccco3)CC2)c2cc(Cl)ccc2O1 (stereo unspecified) -7.34%
CC(C)c1ccc(NC(=O)CSc2nc(=O)n(Cc3cccnc3)c3c2CCC3)cc1 -10%
CN1CCN(C(=O)Nc2cccc(Cl)c2)c2cccnc21 5.92%
CCOc1ccccc1NC(=O)CSc1nc2c(oc3ccccc32)c(=O)n1Cc1ccco1 8.2%
CCOC(=O)c1cnc2c(C(F)(F)F)cccc2c1Nc1cccc(C(=O)OC)c1 -2.9%
CCc1cnc2c(c1SCC(=O)Nc1cc(Cl)ccc1OC)c(=O)n(C)c(=O)n2C 2.61%
COc1ccc(CCNC(=O)Cn2cc(S(=O)(=O)Cc3cccc(Cl)c3)c3ccccc32)cc1OC -4.85%
O=C(NC1CCCC1)c1ccc2c(c1)N(Cc1ccccc1Cl)C(=O)c1ccccc1S2 -2.58%
CCc1ccc(CNC(=O)C2CCN(C(=O)N3CC(CC)Oc4ccc(C)cc43)CC2)cc1 (stereo unspecified) 3.66%
COc1ccccc1OCC(O)CN1CCN(CC(=O)Nc2c(C)cccc2C)CC1 (stereo unspecified) -2.28%

outcome, inactive:
Cc1ccc(NC(=O)CN2C(=O)CCc3cc(S(=O)(=O)N4CCCCC4)ccc32)cc1N(C)C
CCCCN(CCCC)CCNC(=O)c1cc(=O)[nH]c2ccc(S(=O)(=O)N3CCCCCC3)cc12
Cc1ccc(CNC(=O)C2CCCN(S(=O)(=O)c3ccc4c(ccn4C)c3)C2)cc1 (stereo unspecified)
COc1ccc(-c2noc(CSc3nnc(-c4ccc(Cl)cc4)n3C)n2)cc1OC
Cc1ccc(Cl)cc1NC(=O)CSc1nc(C)c(C)c(C)c1C#N
Cc1cc(C)c(NC(=O)CSc2ncc(S(=O)(=O)c3ccc(C(C)(C)C)cc3)c(=O)[nH]2)c(C)c1
COc1cc(OC)c(NC(=O)c2c3c(nn2C)-c2ccccc2SC3)cc1Cl
